Source: PMC4336329 (PLoS ONE, 2015)
The campaign covered roughly 310,000 compounds. About 2,200 (0.71%) showed an effect of 50% or more. Effects have a minus sign here. The list shows a part of the results.

molecular target: human ether-à-go-go-related gene (hERG) potassium channel (human, UniProt Q12809); assay: primary screen, population patch clamp on CHO cells stably expressing hERG
Sequence (Q12809 whole entry, looked up): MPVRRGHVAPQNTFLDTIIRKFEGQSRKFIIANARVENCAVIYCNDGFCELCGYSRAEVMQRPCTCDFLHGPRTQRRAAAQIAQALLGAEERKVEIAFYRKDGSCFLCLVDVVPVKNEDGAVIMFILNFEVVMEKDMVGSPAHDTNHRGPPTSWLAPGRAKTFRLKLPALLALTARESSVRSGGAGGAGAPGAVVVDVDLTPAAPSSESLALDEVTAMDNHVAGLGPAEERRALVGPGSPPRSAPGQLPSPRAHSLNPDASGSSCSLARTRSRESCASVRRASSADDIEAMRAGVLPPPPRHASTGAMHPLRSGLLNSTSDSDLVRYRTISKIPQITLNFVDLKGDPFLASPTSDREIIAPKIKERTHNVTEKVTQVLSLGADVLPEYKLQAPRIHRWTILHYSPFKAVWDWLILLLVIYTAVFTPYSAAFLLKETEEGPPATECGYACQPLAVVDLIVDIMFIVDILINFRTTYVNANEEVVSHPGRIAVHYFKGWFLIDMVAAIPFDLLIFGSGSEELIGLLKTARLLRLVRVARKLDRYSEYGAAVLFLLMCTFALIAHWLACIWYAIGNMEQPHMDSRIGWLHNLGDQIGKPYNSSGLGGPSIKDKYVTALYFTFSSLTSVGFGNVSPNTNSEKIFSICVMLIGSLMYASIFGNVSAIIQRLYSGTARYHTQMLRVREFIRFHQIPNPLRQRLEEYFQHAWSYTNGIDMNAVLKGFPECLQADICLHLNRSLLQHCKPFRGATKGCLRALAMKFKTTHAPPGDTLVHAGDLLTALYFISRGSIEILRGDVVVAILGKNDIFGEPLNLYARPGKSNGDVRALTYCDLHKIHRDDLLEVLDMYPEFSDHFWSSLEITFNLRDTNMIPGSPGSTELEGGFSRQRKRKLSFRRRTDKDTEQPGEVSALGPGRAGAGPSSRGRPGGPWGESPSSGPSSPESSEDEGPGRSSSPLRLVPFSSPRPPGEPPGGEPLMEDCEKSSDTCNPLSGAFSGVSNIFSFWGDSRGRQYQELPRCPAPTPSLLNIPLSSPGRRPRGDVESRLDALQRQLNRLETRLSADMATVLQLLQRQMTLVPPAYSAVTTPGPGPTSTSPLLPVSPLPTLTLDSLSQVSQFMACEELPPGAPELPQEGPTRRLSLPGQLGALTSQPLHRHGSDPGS

Row | SMILES | hERG current change (%, negative = inhibition) at 1uM [%]
1 | CCOC(=O)c1c(S(=O)(=O)Nc2cccc(-c3ccno3)c2)c(C)n(C)c1C | 6.92
2 | COc1ccc(C(=O)NCc2cnn(C)c2)cc1OC1CCN(C(C)C)CC1 | 14.3
3 | O=S(=O)(c1cccc(C(F)(F)F)c1)c1ccc(O)cn1 | 0.539
4 | CCN1C(=O)[C@H]2[C@@H](c3ccc(C)cc3)N3C(=O)N(c4ccccc4)C(=O)[C@@]3(CC)[C@H]2C1=O | 13.8
5 | O=C(O)C(=O)O.c1cc(CN2CCN(C3CCCCCC3)CC2)ccn1 | 2.88
6 | O=C(CCCCCN1C(=O)CCC1=O)Nc1ccc2c(c1)OCCO2 | 6.37
7 | CCOc1cc2c3c(c1)C(C)CC(C)(C)N3C(=O)C2=O (stereo not shown) | -6.3
8 | COc1ccc(NC(=O)CN(C)C(=O)C2CC(=O)N(c3cccc4ccccc34)C2)cc1 (stereo not shown) | 13.9
9 | O=C(CC(SCCO)c1ccc2c(c1)OCO2)c1ccco1 (stereo not shown) | 5.32
10 | Cc1cccc(NC(=O)NCCc2c[nH]c3ccccc23)c1 | -0.241
11 | CCOC(=O)Cc1csc(NC(=O)Cc2cccs2)n1 | 8.62
12 | CCOc1ccc(C(C)=O)cc1COC(=O)C1=COCCO1 | -0.905
13 | O=C(NCc1nc2ccccc2[nH]1)C1=C[C@@H](c2ccccc2)C[C@@H](OCc2ccc(CO)cc2)O1 | 10.1
14 | CCCOc1ccccc1C(=O)Nc1ccc(S(=O)(=O)N2CCN(C)CC2)cc1 | 12.9
15 | Cc1ccc(-c2cnc(NC(=O)CCC(=O)N3CCCCC3)n2C)cc1 | 0.1
16 | CC1(C)CC2(CCO1)OC(=O)CC2C(=O)Nc1ccc(Br)cc1 (stereo not shown) | 9.49
17 | CCc1ccc(C2=CC(c3cc(Br)ccc3F)n3ncnc3N2)cc1 (stereo not shown) | 10
18 | CC1CCCCC1NC(=O)CN1CCC(O)(c2ccc3c(c2)OCO3)CC1 (stereo not shown) | 1
19 | Cc1cc([N+](=O)[O-])c(-c2ccc(/C=N/n3cnnc3)o2)cc1Cl | 5.27
20 | CSc1ncc(Cl)c(C(=O)Nc2cccc(Cl)c2)n1 | 11.2
21 | Cc1ncc(C[n+]2csc(C)c2C)c(N)n1.Cl.[Cl-] | 16
22 | Cc1ccccc1-c1nc(CN2CCCC2c2ccc(F)cc2)c(C)o1 (stereo not shown) | 13.1

Row | SMILES | hERG current change (%, negative = inhibition) at 1uM [%]
23 | c1ccc(Nc2nc3ccccc3n3nnnc23)cc1 | 0.684
24 | COc1cc(C(=O)OCCCN(C)C)cc(OC)c1OC.Cl | 16.4
25 | O=c1[nH]cnc2scc(-c3ccc(F)cc3)c12 | 7.52
26 | CC(=O)CC(C)(C)n1nnc(-c2ccccc2)n1 | 8.01
27 | CC(OC(=O)Cn1c(C(F)(F)F)nc2ccccc21)C(=O)N1CCCc2ccccc21 (stereo not shown) | 3.46
28 | COc1ccc(S(=O)(=O)N2CCC(C(=O)NN3CCCCC3)CC2)cc1OC | 5.04
29 | COc1ccc(-c2ccc(SCC(=O)N3CCOCC3)nn2)cc1OC | 3.67
30 | COc1ccc(Nc2ncnc3ccccc23)cc1.Cl | 0.335
31 | O=[N+]([O-])c1cccc(OCC(O)CN2CCN(S(=O)(=O)c3cc(Cl)ccc3Cl)CC2)c1 (stereo not shown) | 8.34
32 | COc1cc2nc(Cl)nc(NCCO)c2cc1OC | 3.99
33 | CCOc1ccccc1NC(=O)CN(c1ccc(OC)cc1OC)S(=O)(=O)c1ccccc1[N+](=O)[O-] | 18.2
34 | O=C(Cc1csc(-c2cccc(Cl)c2)n1)Nc1cccc(S(=O)(=O)NC2=NCCC2)c1 | -0.269
35 | O=c1c2sccc2nc(SCc2cc(=O)n3ccccc3n2)n1Cc1ccccn1 | -7.07
36 | O=C(OC(C(=O)NCC1CCCO1)c1ccc(F)cc1)c1ccco1 (stereo not shown) | 2.06
37 | COc1ccc(NC(=S)N(Cc2cccc(Br)c2)CC2CCC(C(=O)O)CC2)cc1 (stereo not shown) | 0.519
38 | O=C(COc1ccc(Cl)cc1)NNC(=O)c1ccccc1C(=O)O | 7.24
39 | CCCNC(=O)NC(C(=O)OC)C12CC3CC(CC(C3)C1)C2 (stereo not shown) | -4.09
40 | O=C(CCC1CCCN(C(=O)c2ccc3cc[nH]c3c2)C1)N1CCN(c2ccccn2)CC1 (stereo not shown) | 10.3
41 | Cc1ccccc1N/N=C/c1sc(=O)n(Cc2cccc(C(=O)O)c2)c1Cl | 27.1
42 | CCN(CC)CC#CCC(O)(c1ccccc1)C1CCCC1.Cl (stereo not shown) | 4.6
43 | CC(c1ccccc1)N1CCN(C(=O)CCl)CC1.Cl (stereo not shown) | 9.75
